# Out of some 45,000 compounds screened, about 200 (0.44%) were called active. About 7% were inconclusive and are not listed. Calls follow the shape of the dose curve; as a rule, active = well fitted activation curve with a large enough effect; inconclusive = small, poorly fitted or top-dose-only effect; inactive = no such curve, though single readings can be large or run the other way. The list shows a part of the results.
# Experiment: qHTS of TDP-43 Inhibitors: NCGC Sytravon Library Screen; also: 0% is about no effect; nearly all actives have a fitted effect of over 55% in size
# Details: yeast TDP-43 toxicity rescue, BacTiter-Glo growth, 24 h; series mostly up to 46.1 µM; growth rescue (activation): at the top concentration
# How it was run: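 TDP-43-expressing yeast, pregrown in raffinose, seeded at OD600 0.02 in galactose medium with compound for 24 hr at 30 deg C. Growth read by BacTiter-Glo luminescence, so rescue of toxicity appears as activation.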
row,Structure (SMILES),growth rescue (activation)
1,O=C(Cn1nnc(-c2ccccc2Cl)n1)N1CCCCC1,inactive: -5.84%
2,CN1CC(=O)N(CC(=O)Nc2ccc(OCc3ccccc3)cc2)C1=O,inactive: 8.7%
3,CCOC(=O)Cc1csc(SCc2nc3sc4c(c3c(=O)[nH]2)CCC4)n1,inactive: 23.2%
4,COCCNc1ccnc2c(Cl)cccc12,inactive: 0.11%
5,CCNC(=O)C1(C)CCCN(C(=O)c2csc3ccccc23)C1 (stereo unspecified),inactive: -1.91%
6,CCC(Oc1ccccc1)C(=O)Nc1ccccc1C(=O)N1CCOCC1 (stereo unspecified),inactive: 8.94%
7,Cc1ccc(N2C(=O)CC(Sc3ncccc3C(=O)O)C2=O)cc1 (stereo unspecified),inactive: -4.25%
8,CC(C)CCNC(=O)NC(=O)COC(=O)C1CCN(S(=O)(=O)c2ccccc2F)CC1,inactive: 4.64%
9,Cc1ccc(CNC(=O)C2CCC(=O)N(Cc3ccc(Cl)cc3)C2)cc1F (stereo unspecified),inactive: 14.2%
10,CC1(C(=O)Nc2cccc3cccnc23)CCN1C(=O)CCC1CCCC1 (stereo unspecified),inactive: 23.9%
11,COc1ccc(NS(=O)(=O)c2ccc(NC(=O)c3ccc(CN4CCOCC4)cc3)cc2)cc1,inactive: 4.18%
12,O=C(O)CN1C(=O)/C(=C\c2cn(-c3ccccc3)nc2-c2ccccc2)SC1=S,inactive: 0.651%
13,COc1ccc(NC(=O)CCSCCc2ccccn2)cc1OC,inactive: 1.46%
14,Cc1cc(C(=O)Nc2cc(S(C)(=O)=O)ccc2Cl)c(C)o1,inactive: -1.27%
15,CCCCN(CC)CCNC(=O)Cn1cnc2sc(C)c(S(=O)(=O)N3CCC(C)CC3)c2c1=O,inactive: -1.5%
16,Cc1cccc(S(=O)(=O)NC2CCCCCCC2)c1,inactive: -10.9%
17,CCc1ccc(N2CC(C(=O)Nc3ccc4c(c3)OCCO4)CC2=O)cc1 (stereo unspecified),inactive: 1.33%
18,Cc1ccc(C)c(OCc2nc3ccc(S(=O)(=O)Nc4c(C)n(C)n(-c5ccccc5)c4=O)cc3[nH]2)c1,inactive: 20.4%
19,C=CCN1C(=O)c2ccccc2NC1c1ccc(Br)s1 (stereo unspecified),inactive: 33.3%
20,CC1(C)C=C2C(=NN(c3ccccc3)C(N)=C2C#N)CO1,inactive: -1.86%
21,Cc1ccc(C)c(OCC(=O)Nc2c[nH]c(=O)[nH]c2=O)c1,inactive: 16.1%
22,Cc1ccc(S(=O)(=O)N2CCC[C@H]2C(=O)OCc2nc3ccccc3s2)cc1,inactive: -5.53%
23,COc1cccc(CC(NC(C)=O)C(=O)NC2CCN(c3c4c(nc5ncnn35)CCC4)CC2)c1 (stereo unspecified),inactive: 23.4%

row,Structure (SMILES),growth rescue (activation)
1,CN(CCc1cn[nH]c1)C(=O)C1CCC(=O)N(CC2CCCCC2)C1 (stereo unspecified),inactive: 14.3%
2,OC(c1ccccc1)c1ncc(-c2ccc(Cl)cc2)[nH]1 (stereo unspecified),inactive: 12.3%
3,CCc1nnc(NC(=O)c2nc(S(=O)(=O)Cc3cccc(C)c3)ncc2Cl)s1,inactive: 26.7%
4,CCCS(=O)(=O)NC(=O)C1(C)CCN(C(=O)Cc2cccc(OC)c2)C1 (stereo unspecified),inactive: 10.4%
5,CC1(C(=O)NS(=O)(=O)C2CC2)CCN(C(=O)CSc2ccccc2)C1 (stereo unspecified),inactive: 5.94%
6,Cc1onc(-c2c(Cl)cccc2Cl)c1C(=O)N1CCN(c2ccc(F)cc2)CC1,inactive: 26.2%
7,CCC(Oc1ccccc1)C(=O)Nc1ccc(O)c(-c2nc3cc(C)ccc3o2)c1 (stereo unspecified),inactive: 2.32%
8,COc1cc(OC)cc(C(=O)N2CCN(C3CCCCC3)CC2)c1,inactive: 6%
9,CC(C)c1ccc(N(CC(=O)NCc2cccnc2)S(=O)(=O)c2ccccc2)cc1,inactive: 28.5%
10,CCOC(=O)c1nnsc1N,inactive: 9.12%
11,Cc1ccc(NC(=O)Nc2ccc(Cl)cc2)c(Br)c1,inactive: 11.7%
12,COc1ccc(CCNC(=O)C(=O)NCCOc2ccccc2)cc1OC,inactive: 19.6%
13,COc1cccc(/C=N/NC(=O)c2cccs2)c1,inactive: -6.33%
14,CCn1cnc2sc(C(=O)Oc3cccc(C)c3)c(C)c2c1=O,inactive: 1.64%
15,CC(=O)c1cc(CN2CCN(C(C)C)C(CCO)C2)cs1 (stereo unspecified),inactive: -12.9%
16,Cc1ccc(Cl)cc1-c1cc(C(=O)N2CCN(c3ccncc3)CC2)[nH]n1,inactive: 8.21%
17,COc1ccc(-n2c(C)cc(C(=O)CSc3ccc(NC(C)=O)cc3)c2C)cc1,inactive: 0.107%
18,COCc1ccc(C(=O)NCC2(N3CCCCC3)CCCCC2)cc1,inactive: -5%
19,CCOc1ccccc1OCCCC(=O)Nc1sccc1C(N)=O,inactive: 21.1%
20,Cc1ccc(CSCc2nc3ccccc3[nH]2)cc1,inactive: -5.29%
21,COc1ccc(Cl)cc1NC(=S)Nc1cccnc1,inactive: 15.9%
22,CC(CNS(=O)(=O)c1ccc(Cl)cc1)n1cncn1 (stereo unspecified),inactive: -1.99%
23,COCCCNC(=S)Nc1ccc(CC(=O)O)cc1,inactive: -17%

row,Structure (SMILES),growth rescue (activation)
1,O=C(Cn1c(=O)ccn(Cc2ccccc2)c1=O)Nc1cccc(S(=O)(=O)N2CCOCC2)c1,inactive: 24.2%
2,O=C(COC(=O)/C=C/c1ccc(Br)o1)Nc1cccc(S(=O)(=O)N2CCOCC2)c1,inactive: -5.11%
3,O=C(CC12CC3CC(CC(C3)C1)C2)NC(=S)Nc1ccc(CN2CCOCC2)cc1,inactive: 17.1%
4,O=c1[nH]c(CN2CCN(Cc3ccccc3)CC2)nc2scc(-c3ccccc3)c12,inactive: -9.59%
5,CCc1nn(C(C)C(=O)NCCN2CCN(c3cccc(C)c3C)CC2)c(=O)c2cc3occc3n12 (stereo unspecified),inactive: -2.05%
6,CCOC(=O)CC1=CSC2=NS(=O)(=O)CCN12,inactive: -11.7%
7,CC1(C(=O)NS(=O)(=O)C2CC2)CCN(C(=O)c2cccc(Cl)c2)C1 (stereo unspecified),inactive: 4.94%
8,CCCCNC(=O)Cn1c(=O)c2c(ncn2CCC(C)C)n(Cc2ccccc2)c1=O,inactive: 13.8%
9,CCOC(=O)N/N=C/c1ccc(N2CCOCC2)s1,inactive: -3.1%
10,O=C(O)c1ccc(/C=N/NC(=O)c2cc(-c3cccs3)nc3ccccc23)cc1,inactive: 6.01%
11,O=C(c1cc(F)ccc1F)C1CCCN(C(=O)c2cccs2)C1 (stereo unspecified),inactive: 30.5%
12,O=C(Nc1cccc(S(=O)(=O)N2CCOCC2)c1)C1COc2ccccc2O1 (stereo unspecified),inactive: -0.966%
13,COc1cc(/C=N/N(C)C)cc(Br)c1O,inactive: -14.3%
14,O=C1C2C3C=CC(C4CC34)C2C(=O)N1/N=C/c1ccc([N+](=O)[O-])o1 (stereo unspecified),inactive: 22.1%
15,CC(C)Cn1c(N)c(C(=O)COC(=O)c2ccccc2F)c(=O)n(C)c1=O,inactive: 6.2%
16,Cc1cccc(C(C)C)c1NC(=O)c1ccc(CN(c2ccccc2)S(=O)(=O)c2ccccc2)cc1,inactive: 1.79%
17,CN(C)C(=O)CNc1ccn2nc(-c3cccc(OCCN4CCOCC4)c3)cc2n1,inactive: 6.91%
18,Cc1cc(SCC(=O)NN)c2cc(Br)ccc2n1,inactive: -11.4%
19,CCN1C(=O)/C(=C/c2ccc(OCc3ccc(C(=O)O)cc3)c(Cl)c2)NC1=S,inactive: 9.11%
20,CCc1nc2c(OCCOc3ccccc3)cccn2c1N(C=O)Cc1ccc(OC)cc1,inactive: 7.4%
21,COc1cccc(N2CCN(c3ccc(S(=O)(=O)N4CCN(C)CC4)cc3[N+](=O)[O-])CC2)c1,inactive: -4.72%
22,S=C(NCCc1c[nH]c2ccccc12)NC1CC1,inactive: 1.92%
23,Nc1nc2n(n1)C(=O)CC(c1ccccc1)N2 (stereo unspecified),inactive: 2.18%

row,Structure (SMILES),growth rescue (activation)
1,CCOC(=O)N1CCN(C(=O)C2CCN(C(=O)c3ccccc3C)CC2)CC1,inactive: -93.1%
2,CC(=O)Nc1cccc(NC(=O)CSc2nnc3ccccn23)c1,inactive: 14.4%
3,Cc1ccc2cc(NC(=O)C3(C)CCN(C)C3)ccc2n1 (stereo unspecified),inactive: 22.4%
4,Cc1cccc(Nc2nccc(N(C)C)c2C#N)c1,inactive: 4.03%
5,CN(C(=O)c1cccc(S(=O)(=O)NCc2ccccc2)c1)C1CCCCC1,inactive: 17.6%
6,O=C(CSc1nnc(-c2ccccc2)n1Cc1ccco1)NCc1ccc2c(c1)OCO2,inactive: -22.8%
7,CC(C)NS(=O)(=O)c1ccc(NC(=O)C(C)OC(=O)CCCOc2ccccc2)cc1 (stereo unspecified),inactive: 9.8%
8,O=C(c1cc(-c2ccc(Cl)cc2)on1)N1CCCC1,inactive: 9.64%
9,CCN(CC)c1ccc(/C=N/Nc2nc(C)cc(C)n2)cc1,inactive: 8.99%
10,Cc1cc(Cl)ccc1OCC(=O)Nc1cccnc1,inactive: 0.769%
11,COc1ccc(OC)c(S(=O)(=O)N2CCC(C(=O)N3CCOCC3)CC2)c1,inactive: 0.469%
12,CCOC(=O)c1nc2ccccc2c(=O)[nH]1,inactive: 14.3%
13,Clc1ccccc1Cc1noc(CN2CCCCC2CCc2ccccn2)n1 (stereo unspecified),inactive: -8.46%
14,CN(c1ccccc1C(=O)Nc1cccc([N+](=O)[O-])c1)S(C)(=O)=O,inactive: 14.4%
15,COc1ccc(/C(=N/O)C(C)(C)NO)cc1,inactive: -23.1%
16,Cc1cc(NC(=O)COc2ccc3ccccc3c2)no1,inactive: -1.46%
17,CC12CCC(C(=O)N/N=C/c3ccc(O)cc3O)(OC1=O)C2(C)C (stereo unspecified),inactive: -5.3%
18,Cc1ccc(NC(=O)CN2C(=O)C(c3ccc(F)cc3)=NC23CCCCC3)c(C)c1,inactive: 34.5%
19,O=C(N/N=C/c1ccc(Cl)s1)c1ccccc1[N+](=O)[O-],inactive: 15.8%
20,O=C(Nc1ccc2c(c1)CCC2)c1cc2ccccc2o1,inactive: 6.4%
21,COc1ccc2cc(C(=O)N/N=C/c3sc4ccccc4c3O)ccc2c1,inactive: 45.4%
22,CCCCn1c(N)c(N(CC)C(=O)c2cccs2)c(=O)[nH]c1=O,inactive: -6.75%
23,O=C(/C=C/c1c(F)cccc1Cl)Nc1ncccn1,inactive: 21.4%

row,Structure (SMILES),growth rescue (activation)
1,COc1ccc(C2NC(Cc3ccccc3)(C(=O)O)C3C(=O)N(c4ccccc4OC)C(=O)C23)cc1 (stereo unspecified),inactive: 13.1%
2,COc1ccc(NC(=S)N2CCC(N(C)CC3CCCO3)CC2)cc1Cl (stereo unspecified),inactive: 10.8%
3,CC(C)COP(=O)(c1ccc(N(C)C)cc1)C(Nc1ccccc1)c1ccccc1 (stereo unspecified),inactive: -0.423%
4,N#CC1(NC(=O)CSc2nc3ccccc3o2)CCCCC1,inactive: -4.11%
5,O=C(CSCCc1ccccn1)Nc1ccccn1,inactive: -62.9%
6,Cc1ccc(-n2c(CSc3nc(C)cc(C)n3)n[nH]c2=S)cc1,inactive: 1.46%
7,Cc1nn(C)c(C)c1CN(C)C(=O)c1cc2nc(-c3ccco3)cc(C(F)(F)F)n2n1,inactive: -7.85%
8,COc1ccc(COC(=O)CNC(=O)C2CCCCC2)cc1F,inactive: 17.3%
9,CC(=O)c1ccc(Nc2nc(-c3cccnc3)cs2)cc1,inactive: -6.64%
10,O=C(CSc1nncn1-c1ccccc1)NC1CCCCC1,inactive: 0.383%
11,Cc1ccccc1NC(=O)C(Cl)=C(Cl)Cl,inactive: 17.3%
12,O=C(COC(=O)c1cccs1)NC12CC3CC(CC(C3)C1)C2,inactive: 6.5%
13,CCCc1cc(=O)oc2c(CN(CC)CC)c(O)c(Cl)cc12,inactive: 3.56%
14,NC(=O)CS(=O)(=O)c1ccc(Cl)cc1,inactive: 10%
15,CN(C(=O)CSc1nc2ccccc2o1)C1CCS(=O)(=O)C1 (stereo unspecified),inactive: 19.9%
16,O=C(COc1ccc(Cl)cc1)NCCCNC(=O)c1cnccn1,inactive: 2.94%
17,O=C(NCc1ccc(-c2nc3ccccc3s2)cc1)c1ccc(Br)o1,inactive: 24.8%
18,Cn1cc(C=O)c(-c2ccc3c(c2)OCCCO3)n1,inactive: 0.257%
19,CCOC(=O)c1ccc(NC(=O)C2Cc3ccccc3CN2S(=O)(=O)c2ccc(Cl)cc2)cc1 (stereo unspecified),inactive: 1.11%

# Reference: PubChem BioAssay AID1347073 (National Center for Advancing Translational Sciences (NCATS), 2019)
